Results on 65 compounds are retold here after the supplement of paper PMC9135407.

Several values for one entry are separate records, joined by “and”; a condition that tells them apart may be missing. Identical values can stand only once. Counter-ions that a name gives are not always drawn. Hit rate of the full screen: of about 5,800 compounds, about 620 (11%) showed activity.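 Rule for the calls: active = score above a cut-off or among the top three wells of a plate; in these data no inactive exceeds 0.85.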 The list shows a part of the results, in another mix than the full data.

In this test the test system is primary human hepatic stellate cells (donor 1). In words: scaled lipid accumulation score (0 = DMSO-like, 1 = nortriptyline-like); higher = stronger HSC inactivation (lipid re-accumulation), active = hit call of the paper. To be noted: 48 h.
[1] abbreviates: library stock concentration: 10 mM.
Setting [2] is: library stock concentration: 1 mM.
Where [3] appears, read: library stock concentration: 3.33 mM.

Turning to `NC(=O)C[S+]([O-])C(c1ccccc1)c1ccccc1` (centres undefined) [Modafinil], the “scaled lipid accumulation score” value (library stock concentration: 7.3 mM) was inactive: ≤ 0; the “scaled lipid accumulation score” value under setting [1] was inactive: ≤ 0 and inactive: 0.03.
For the compound `Ic1ccccc1CNC1C2CCN(CC2)C1C(c1ccccc1)c1ccccc1` [L-703,606 oxalate salt hydrate], under setting [1], the “scaled lipid accumulation score” value was inactive: 0.063.
As for `CC1(C)C(C=C(Cl)Cl)C1C(=O)OCc1cccc(Oc2ccccc2)c1` (centres undefined), the “scaled lipid accumulation score” value under setting [1] was inactive: ≤ 0.
In the case of `COc1ccc2c(c1)[nH]c1c(C)nccc12` [Harmine], the “scaled lipid accumulation score” value is inactive: 0.141 under setting [2] and inactive: 0.762 under setting [1].
`O=C1c2ccccc2C(=O)c2ccccc21` [Anthraquinone]: the “scaled lipid accumulation score” value under setting [1] was inactive: ≤ 0.
Still for that read-out and setting: next, `CCCN(CCC)CCc1ccc(O)c(O)c1` [Dipropyldopamine hydrobromide]: inactive: ≤ -0.07.
Same read-out and setting: as for `COc1ccc(C[C@H]2NC[C@H](O)[C@H]2OC(C)=O)cc1` [Anisomycin], the figure is inactive: 0.806.
As for `COc1ccc2c(c1)/C(=C/c1cnc[nH]1)C(=O)N2`, the “scaled lipid accumulation score” value under setting [3] was inactive: ≤ 0.
`Cc1[nH]c2ccc(Cl)cc2c1C1=CCNCC1.Cl`: under setting [1], the “scaled lipid accumulation score” value was active: 1.1.
`C/C=C(\C)C(=O)N[C@@H](c1ccccc1)[C@@H](O)C(=O)O[C@H]1C[C@@]2(O)[C@@H](OC(=O)c3ccccc3)[C@@H]3[C@]4(OC(C)=O)CO[C@@H]4C[C@H](O)[C@@]3(C)C(=O)[C@H](OC(C)=O)C(=C1C)C2(C)C` [Cephalomannine]: the “scaled lipid accumulation score” value is, setting by setting: under setting [3], inactive: ≤ 0; under setting [1], inactive: ≤ 0.
As to `C=C1[C@@H](O)[C@@H]2O[C@]3(CC[C@H](/C=C/[C@@H](C)[C@@H]4CC(C)=C[C@@]5(O[C@H](C[C@@](C)(O)C(=O)O)CC[C@H]5O)O4)O3)CC[C@H]2O[C@@H]1[C@@H](O)C[C@H](C)[C@H]1O[C@@]2(CCCCO2)CC[C@H]1C` [Okadaic acid], for the setting “library stock concentration: 600 uM”, the “scaled lipid accumulation score” value is inactive: 0.393.
As to `CCC(COC(=O)c1cc(OC)c(OC)c(OC)c1)(c1ccccc1)N(C)C` (centres undefined) [Trimebutine], the “scaled lipid accumulation score” value by setting is: under setting [3], inactive: ≤ 0; under setting [1], inactive: ≤ 0.
For the compound `NCCc1c[nH]c2ccc(O)cc12` [Serotonin hydrochloride], the “scaled lipid accumulation score” value is inactive: ≤ 0. For the same compound, under setting [1], the “scaled lipid accumulation score” value was inactive: ≤ -0.07.
Take `NCCc1c[nH]c2ccc(O)cc12` [Serotonin]: the “scaled lipid accumulation score” value under setting [1] is inactive: ≤ -0.001.
In the case of `NCCc1c[nH]c2ccc(O)cc12` [Serotonin HCl], the “scaled lipid accumulation score” value by setting is: under setting [3], inactive: ≤ 0; under setting [1], inactive: ≤ -0.001.
Take `CNC(C)[C@H](O)c1ccccc1` (some centres undefined) [Ephedrine (1r,2s) hydrochloride]: the “scaled lipid accumulation score” value under setting [1] was inactive: ≤ 0.
Turning to `CCN(C(C)=O)c1cccc(-c2ccnc3c(C#N)cnn23)c1` [Zaleplon], under setting [1], the “scaled lipid accumulation score” value was inactive: ≤ 0.
In the case of `CO[C@H](C/C=C\C=C\CC/C=C/C[C@H](C)/C=C/C(=C\C(=O)O)CC(=O)O)/C(C)=C\C=C(/C)C(=O)O` [Bongkrekic acid], the “scaled lipid accumulation score” value under setting [2] was inactive: ≤ -0.014.
Consider `CN(C)NC(=O)CCC(=O)O` [Daminozide], for which the “scaled lipid accumulation score” value (library stock concentration: 80 uM) is inactive: ≤ 0, the “scaled lipid accumulation score” value (library stock concentration: 400 uM) was inactive: ≤ 0, the “scaled lipid accumulation score” value (library stock concentration: 2 mM) was inactive: ≤ 0 and the “scaled lipid accumulation score” value under setting [1] is inactive: ≤ 0.
As for `O=[N+]([O-])c1ccc([As](=O)(O)O)cc1`, the “scaled lipid accumulation score” value under setting [1] is inactive: 0.03.
`COc1cc([C@@H]2c3cc4c(cc3[C@H](O)[C@H]3COC(=O)[C@H]23)OCO4)cc(OC)c1OC` [Podofilox]: the “scaled lipid accumulation score” value was inactive: 0.201 (library stock concentration: 4.8 mM) and inactive: 0.419 under setting [1].
With `COc1cc([C@@H]2c3cc4c(cc3[C@H](O)[C@H]3COC(=O)[C@H]23)OCO4)cc(OC)c1OC` [Podophyllotoxin], the “scaled lipid accumulation score” value is inactive: ≤ 0. Moreover, the “scaled lipid accumulation score” value under setting [1] is inactive: 0.288.
Consider `C=C(C)[C@@H]1CCC(C)=C[C@H]1C1=C(O)C(=O)C(CCCCC)=CC1=O`, for which the “scaled lipid accumulation score” value under setting [2] is inactive: 0.055.
Turning to `CC(C)(C)NCC(O)COc1cccc2[nH]c(C#N)cc12` (centres undefined) [Cyanopindolol hemifumarate], under setting [1], the “scaled lipid accumulation score” value is inactive: 0.049.
For the compound `CNC(C)C(O)c1ccccc1` (centres undefined) [Racephedrine hydrochloride], the “scaled lipid accumulation score” value reads like this: (library stock concentration: 9.9 mM) inactive: ≤ 0; under setting [1], inactive: ≤ 0.
Turning to `O=C1Nc2cc(Cl)c(Cl)cc2N2CCNCC12` (centres undefined), under setting [1], the “scaled lipid accumulation score” value is inactive: 0.49.
For the compound `CCCCCCCC/C=C\CCCCCCCC(=O)OC[C@@H](COP(O)(O)=S)OC`, under setting [2], the “scaled lipid accumulation score” value was inactive: 0.084.
As to `CCC1(c2cccc(O)c2)CCCCN(C)C1` (centres undefined) [Meptazinol hydrochloride], the “scaled lipid accumulation score” value was inactive: 0.129.
Consider `CCC1(c2cccc(O)c2)CCCCN(C)C1` (centres undefined) [Meptazinol HCl], for which the “scaled lipid accumulation score” value by setting is: under setting [3], inactive: ≤ 0; under setting [1], inactive: 0.123.
In the case of `CC[C@H]1[C@@H]2C[C@H]3[C@@H]4N(C)c5ccccc5[C@]45C[C@@H]([C@@H]2[C@H]5O)N3[C@@H]1O` [Ajmaline], the “scaled lipid accumulation score” value was inactive: 0.12. For the same compound, under setting [1], the “scaled lipid accumulation score” value was inactive: ≤ 0.
As to `CS(=N)(=O)CC[C@H](N)C(=O)O` (stereo partly drawn) [L-Methionine sulfoximine], under setting [1], the “scaled lipid accumulation score” value is inactive: ≤ -0.055.
As to `CS(=N)(=O)CC[C@H](N)C(=O)O` (some centres undefined) [Methionine sulfoximine (L)], the “scaled lipid accumulation score” value was inactive: 0.025.
Regarding `O=C(CCCN1CCC2(CC1)C(=O)N(Cc1cccc(F)c1)CN2c1ccccc1)c1ccc(F)cc1.O=C(O)/C=C\C(=O)O` [3'-Fluorobenzylspiperone maleate], under setting [1], the “scaled lipid accumulation score” value is active: 0.967.
Consider `C[C@@H]1CC[C@H]2[C@@H](C)C(=O)O[C@@H]3O[C@@]4(C)CC[C@@H]1[C@]32OO4` [Artemisinin], for which the “scaled lipid accumulation score” value was inactive: ≤ 0. Also, the “scaled lipid accumulation score” value under setting [3] is inactive: ≤ 0. For the same compound, where the note is “library stock concentration: 7.1 mM”, the “scaled lipid accumulation score” value was inactive: ≤ 0. Moreover, the “scaled lipid accumulation score” value under setting [1] is inactive: 0.151 and inactive: ≤ 0 and inactive: ≤ -0.001.
`CCNC1(c2cccs2)CCCCC1=O` (centres undefined) [Tiletamine hydrochloride]: the “scaled lipid accumulation score” value was inactive: ≤ 0.
Consider `Cc1ccc(O)cc1.Cc1cccc(O)c1.Cc1ccccc1O` [Cresol], for which the “scaled lipid accumulation score” value reads like this: under setting [1], inactive: 0.068; (library stock concentration: 18.5 mM) inactive: 0.014.
Take `CCN1C[C@]2(COC)CC[C@H](O)[C@@]34C5C[C@@H]6[C@@H](OC)C[C@](O)(C(CC23)C14)C5[C@H]6OC(C)=O` (some centres undefined) [Condelphine]: the “scaled lipid accumulation score” value was inactive: ≤ 0.
Turning to `C#C[C@]1(O)C=C[C@H]2[C@@H]3CCC4=CC(=O)CC[C@@H]4[C@H]3CC[C@@]21CC` [Gestodene], the “scaled lipid accumulation score” value is, setting by setting: under setting [3], inactive: ≤ 0; under setting [1], inactive: ≤ 0.
For the compound `C[C@]12Cc3c[nH]nc3C[C@@H]1CC[C@@H]1[C@@H]2CC[C@@]2(C)[C@H]1CC[C@]2(C)O` [Stanozolol], the “scaled lipid accumulation score” value is, setting by setting: (library stock concentration: 6.1 mM) inactive: ≤ 0; under setting [1], inactive: ≤ 0.
Consider `Cc1nnc2ccc(-c3cccc(C(F)(F)F)c3)nn12`, for which the “scaled lipid accumulation score” value under setting [1] was inactive: 0.086.
Still for that read-out and setting: as for `COc1cc2c(cc1-c1cc3cc4ccoc4cc3oc1=O)OCO2` [Pachyrrhizin], the figure is inactive: 0.126.
In the case of `NCC(=O)O.[C-]#[O+].[C-]#[O+].[C-]#[O+].[Cl][Ru]`, the “scaled lipid accumulation score” value was inactive: ≤ -0.009 under setting [3] and inactive: ≤ 0 under setting [1].
Consider `Cc1cc(C(=O)CN2CCCC2)c(C)n1-c1ccc(F)cc1`, for which the “scaled lipid accumulation score” value under setting [3] is inactive: ≤ -0.009 and the “scaled lipid accumulation score” value under setting [1] is inactive: 0.244.
On the same counts, the results for `Cc1cccc([C@H](C)c2c[nH]cn2)c1C` [Dexmedetomidine] are inactive: 0.005 and inactive: 0.007.
For `CC1(C(=O)O)C2CCC(O2)C1(C)C(=O)O` (centres undefined) [Cantharidic Acid], the “scaled lipid accumulation score” value under setting [1] was inactive: ≤ 0.
Same read-out and setting: as for `CCCN(CCC)[C@@H]1CCc2c(OC)cccc2[C@@H]1C` [(+)-UH 232 maleate], the figure is inactive: 0.107.
As for `CC(C)(C)NCC(O)c1ccccc1Cl` (centres undefined) [Tulobuterol], the “scaled lipid accumulation score” value was inactive: ≤ 0 (library stock concentration: 8.8 mM) and inactive: ≤ -0.027 under setting [1].
`CC(C)(C)NCC(O)c1ccccc1Cl` (centres undefined) [Tulobuterol hydrochloride]: under setting [1], the “scaled lipid accumulation score” value was inactive: 0.09.
With `CCC(C)(C)O`, under setting [1], the “scaled lipid accumulation score” value is inactive: ≤ 0.
Still for that read-out and setting: next, `CN(C)C(=S)SSC(=S)N(C)C` [Thiram]: inactive: 0.163.
As to `CO[C@]12C[C@@H](COC(=O)c3cncc(Br)c3)CN(C)[C@@H]1Cc1cn(C)c3cccc2c13` [Nicergoline], the “scaled lipid accumulation score” value was inactive: ≤ 0. Besides, the “scaled lipid accumulation score” value under setting [1] was inactive: 0.682 and inactive: 0.399.
For `CC(=O)OCC1=C(C(=O)O)N2C(=O)[C@@H](N)[C@H]2SC1` [Cephalosporanic acid, 7-amino], the “scaled lipid accumulation score” value was inactive: ≤ 0.
In the case of `C[C@H]1C(=O)O[C@@H]2CCN3CC=C(COC(=O)[C@](C)(O)[C@]1(C)O)[C@H]23` [Monocrotaline], the “scaled lipid accumulation score” value is inactive: 0.056. Also, the “scaled lipid accumulation score” value under setting [1] was inactive: ≤ 0.
On to `CCCN(CCC)[C@@H]1CCc2cccc(O)c2C1` [R-(+)-8-Hydroxy-DPAT hydrobromide], for which the “scaled lipid accumulation score” value under setting [1] is inactive: ≤ -0.07.
Same read-out and setting: next, `C#CCN[C@H](C)Cc1ccccc1` [R-(-)-Desmethyldeprenyl hydrochloride]: inactive: ≤ 0.
`C[C@@]12N[C@@H](Cc3ccccc31)c1ccccc12` [(-)-MK 801 Maleate]: the “scaled lipid accumulation score” value by setting is: under setting [3], inactive: 0.03; under setting [1], inactive: 0.196.
As to `C[C@@]12N[C@@H](Cc3ccccc31)c1ccccc12` [(-)-MK 801 hydrogen maleate], the “scaled lipid accumulation score” value is inactive: ≤ 0.
Consider `C[C@@]12N[C@@H](Cc3ccccc31)c1ccccc12` [(-)-MK 801 maleate], for which the “scaled lipid accumulation score” value under setting [1] was inactive: 0.167.
On to `C[C@@]12N[C@@H](Cc3ccccc31)c1ccccc12` [(-)-MK-801 hydrogen maleate], for which, under setting [1], the “scaled lipid accumulation score” value is inactive: 0.313.
In the case of `CC(CC(C(N)=O)(c1ccccc1)c1ccccc1)N(C)C` (centres undefined) [Aminopentamide], the “scaled lipid accumulation score” value (library stock concentration: 5.1 mM) was inactive: 0.04.
For `CCCN1CCc2cc(O)cc3c2[C@H]1Cc1ccc(O)c(O)c1-3` [R(-)-2,10,11-Trihydroxy-N-propylnoraporphine hydrobromide], under setting [1], the “scaled lipid accumulation score” value is inactive: ≤ -0.07.
As to `CN1C(=O)CN=C(c2ccccc2)c2cc([N+](=O)[O-])ccc21` [Nimetazepam], the “scaled lipid accumulation score” value under setting [1] is inactive: ≤ 0.
For the compound `C[N+]12CCC(CC1)C(OC(=O)C(O)(c1ccccc1)c1ccccc1)C2` (centres undefined) [Clidinium bromide], the “scaled lipid accumulation score” value is inactive: ≤ 0. Further, the “scaled lipid accumulation score” value under setting [1] was inactive: ≤ 0.
In the case of `OC[C@@H](O)[C@H]1O[C@@H]2O[C@H](C(Cl)(Cl)Cl)O[C@@H]2[C@H]1O`, under setting [1], the “scaled lipid accumulation score” value is inactive: ≤ 0.
In the case of `CC(=O)OC12COC1CC(O)C1(C)C(=O)C(O)C3=C(C)C(O)CC(O)(C(OC(=O)c4ccccc4)C21)C3(C)C` (centres undefined) [10-Deacetylbaccatin-III], the “scaled lipid accumulation score” value by setting is: under setting [3], inactive: 0.014; under setting [1], inactive: ≤ 0.
